According to the RNAGym collection of RNA variant scans (doi:10.7554/elife.90254):
Read counts are not given, so values of variants with three or more changes are uncertain.

B1: LINE1-mini (parent)
chain: GGCAGAGCUCAACACAGCGUGGCAAAGUGGCUGUGGCUAGACUGCC

Variants of: B1
Assay: self-cleavage, relative activity (ratio to wild type); higher = more cleavage; in vitro, sequencing; the parent is a self-cleaving ribozyme

| Variant | self-cleavage |
| --- | --- |
| A4G G5U G30C | 0.01 |
| G5A A11C C37U G40A C45G | 0 |
| G5A A25U G44U C45U | 0 |
| G5A A16G A25C C37G | 0.01 |
| A4G U20A G22A G35U | 0.2 |
| A4U A16G C45G | 0.03 |
| A4G U9C C45U | 0.01 |
| G5A A12C A24C C37G | 0.02 |
| G5A A26U G33U C37U C45G | 0.01 |
| A4G G7U U20G G36A | 0.08 |
| A4U C18A G22C G33C | 0.03 |
| G5A C8G G29U U32A A41G C46A | 0.04 |
| G5A A6C G36U U43A | 0 |
| G5A A6U A26U A39C G40U | 0.12 |
| A4G G7U A14G A16G A24U G30C G33C U34G | 0.06 |
| G5A A16G G17U G36U | 0.07 |
| A4U G5A A16G U20A G30C C46G | 0.01 |
| A4U G17A G22A G27U G36U | 0.15 |
| A4U G44U C45A | 0.04 |
| A4U C8A U43A | 0.91 |
| A4U G29C G40A | 0.01 |
| A4U G29U C46G | 0.07 |
| A4U C10G G19C A24G | 0.02 |
| A4G G29A U34A G40U | 0.14 |

| Variant | self-cleavage |
| --- | --- |
| G5A A6U U20A | 0.13 |
| A4U G40A C42A C45U | 0.01 |
| A4U C10A A14C C15U C31A | 0.02 |
| A4U A14G G19C G21U C31U C37G | 0.03 |
| G5A A6G C18G G35A | 0.1 |
| A4U C23A G29U | 0.17 |
| A4G G44C C46A | 0.02 |
| A4U C13A G17C | 0.03 |
| A4U G17C G35U | 0.06 |
| G5A A11G G21U C45A C46U | 0.01 |
| A4U U9G G19A A26U U38G G40A | 0.03 |
| A4G U34C C37A | 0.06 |
| A4G G19C A26C G33C U38A | 0.06 |
| A4U C18U G35A | 0.05 |
| A4U G5U A41U | 0.09 |
| A4U C8G C13A G40C | 0.2 |
| A4G U9C C23G G29U | 0.59 |
| A4G G21U G29U | 1.37 |
| A4U A6G A24G G27C | 0.05 |
| G5A A24C U34C A39C | 0.02 |
| A4U C8G U9G A11C C15A G21A G27U G33A | 0.01 |
| A4U U9A A11U C37A | 0.03 |
| A4U G17A G19A C23A G35C A39G A41U | 0.01 |
| A4G G5C U28A C31A G33U | 0.05 |

| Variant | self-cleavage |
| --- | --- |
| A4U A16G A26G | 0.04 |
| A4U A12G G19U | 0 |
| A4U A11U U34C G40U | 0.02 |
| A4U G5U A11C U28A | 0.01 |
| G5A C8A C13U U28C | 0.8 |
| A4G G33A G44A C45G | 0.12 |
| A4G G5U C18U | 0.1 |
| A4G G22A G35U A41G | 0.16 |
| A4U G17C C31U U32G | 0.11 |
| G5A A12C C18A G19U C31A | 0.01 |
| A4U C18G A39G G40U | 0.42 |
| A4U G5U G19A | 0.05 |
| A4U G7U U9A U38A | 0.24 |
| A4G G7U G44C | 0.06 |
| A4G G7A C31U A41G C42G | 0.01 |
| G5A A6U G29A | 0.07 |
| G5A A11C G21U G35U | 0.1 |
| A4U G7C A41U | 0.12 |
| G5A A12U C13U G21C | 0.13 |
| A4U U28C U32A A39G | 0.07 |
| A4U G5U C13U | 0.18 |
| G5A C8G G22C A25U U43C | 0.01 |
| A4G G5U A11G | 0 |
| A4U A6G G21U G44A | 0 |

| Variant | self-cleavage |
| --- | --- |
| A4U C18U G21C U32A C37A G44C | 0 |
| A4U C8A C13G A16C G29U U32G | 0.06 |
| A4G G22U G40C | 0.42 |
| A4G U9G U34A C37U | 0.15 |
| A4U G17U C31G | 0.04 |
| G5A A6U C18A U38C | 0.04 |
| A4U G5C G27A C45G | 0.03 |
| A4U C18G A25G U43A | 0.11 |
| A4U A11C U34A | 0.05 |
| G5A A14C G36U | 0.21 |
| G5A A14C G30C | 0.07 |
| A4U A16U G36C | 0.07 |
| A4G G29A C31A A41U | 0.07 |
| A4G G27A C45G | 0.28 |
| A4U C10G U43G | 0.02 |
| G5A A11U C45U | 0.03 |
| G5A C8A C46U | 0.18 |
| A4G U38A G44C C46U | 0.02 |
| G5A A12U G17C G36C C37U | 0.13 |
| A4U G7C A26G C46A | 0.18 |
| A4U G17A G21C | 0.13 |
| A4U A11G C23U G29U | 0.01 |
| A4U C15U U20A A39C | 0.13 |
| G5A A6C C10A | 0.12 |

| Variant | self-cleavage |
| --- | --- |
| A4G G27A U28C G29A | 0.13 |
| A4U G17C G21C G27C | 0.5 |
| A4G G19A G21U A26G C45A | 0.09 |
| G5A A16U G33C G44A | 0.12 |
| A4U G21C G29C G30A | 0.12 |
| A4U G21C A26U C31G U32A | 0.07 |
| A4U C15G G17C C23U | 0.17 |
| A4U A12U C31U G40U | 0.05 |
| A4U G33C G35U | 0.06 |
| A4G G19U C23A G44U | 0.19 |
| A4U G17A A24C G36U | 0.02 |
| A4U C8A C15A G21C G30C C46G | 0.09 |
| A4U A12U G19U G27C U34G | 0.02 |
| A4U G5U A6C G17C | 0.04 |
| A4U G5C A25C | 0.08 |
| A4U U20A G35U C46A | 0.01 |
| A4G U9A C10G A14U C18A G33C U38A | 0 |
| A4U C23G C31A | 0.05 |
| A4U C10G A25C G33U | 0.03 |
| A4G G7U G19U G40A C45G | 0.08 |
| A4U A12U C31G U34A C45U | 0.01 |
| G5A A6U G7U | 0 |
| A4U G5C C46U | 0.13 |
| A4U C8A A12G G35A | 0.08 |

| Variant | self-cleavage |
| --- | --- |
| A4U C8A G19U | 0.11 |
| A4U A11C C23G G35U | 0.04 |
| A4G G17C C42G | 0.06 |
| A4U G5A U9C C23U G27C U32A G36A C37A | 0.04 |
| A4U C8U G29A | 0.03 |
| G5A C8A C15A G19U G29A U43G G44A | 0.17 |
| G5A A6C C15U G19U | 0.45 |
| A4U G5U U9A G21U | 0.14 |
| G5A A14G G17A C18A G44C | 0.05 |
| G5A A24G G27A | 0.09 |
| A4U A14C C23U G30A | 0.04 |
| A4U C15A G19U A24U A25C G30C G36U | 0 |
| A4U C10A C45U | 0.03 |
| A4U G17C C18G U43C | 0.01 |
| A4U A11C C23A G27A | 0.01 |
| A4G G21U C46A | 0.07 |
| A4G G27A C42U U43A | 0.27 |
| A4G G7U A11U G27A G40A | 0 |
| A4U A11C C42A | 0 |
| A4U G17U U20G A25C | 0.04 |
| A4G G5U A12G C18A A24U G33C | 0.02 |
| A4G G21A C45G | 0.11 |
| A4G G19A U32C G40C A41C | 0.02 |
| A4U C18U C45U | 0.06 |

| Variant | self-cleavage |
| --- | --- |
| A4U C15G U28G U38A | 0.04 |
| A4U C13G A24C U32G | 0.01 |
| A4U U32C A39C | 0.11 |
| A4U C8G C18A G21A G33C U34A G36U | 0.08 |
| A4U G17U C23A A39U C42U | 0.05 |
| G5A A11U C46G | 0.03 |
| G5A A24C A26U C31U U34A C37G | 0 |
| A4G U9C G30U C31A | 0.03 |
| G5A A26G G29U G35U | 0.24 |
| A4U U28G C31G | 0 |
| A4U U9A G19C U38C A41U | 0.1 |
| A4G G21C G27C G44A | 0.03 |
| G5A A12U A25C | 0.34 |
| G5A A6U C8G G30U G40A | 0.27 |
| A4U C8A C13A G19C G33A C37A | 0.03 |
| A4U A12U A25U A41U | 0.01 |
| G5A A6C U20C C31A | 0.05 |
| G5A A6G G7U G27C U32C | 0 |
| A4U U9C G22C C46A | 0.01 |
| A4U U32A G35U A41C C42G | 0.05 |
| A4U U28A G44U C45U | 0.07 |
| A4G G17U C46A | 0.23 |
| G5A A14U G29U | 0.08 |
